In patent US20250115658A1 (FBD BIOLOGICS, published 2025):

Columns and labels:
Human PD-L1-ECD-His [1] = biological target: T1, Human PD-L1-ECD-His (human, UniProt Q9NZQ7 fragment); experiment: Octet Red96 BLI, pH6.0; fold of affinity against PD1-Fc-wt1
T1 construct: Bought (Sino cat. no. I-10084-H08H); not shown: His tag

Human PD-L1-ECD-His [2] = biological target: T1, Human PD-L1-ECD-His; experiment: Octet Red96 BLI, PDL1-ECD-His loaded on anti-Penta-HIS (HIS1K) biosensor, PD1-Fc protein as analyte, 1:1 model, pH7.4; pH 7.4
T1 sequence (Q9NZQ7 19-238): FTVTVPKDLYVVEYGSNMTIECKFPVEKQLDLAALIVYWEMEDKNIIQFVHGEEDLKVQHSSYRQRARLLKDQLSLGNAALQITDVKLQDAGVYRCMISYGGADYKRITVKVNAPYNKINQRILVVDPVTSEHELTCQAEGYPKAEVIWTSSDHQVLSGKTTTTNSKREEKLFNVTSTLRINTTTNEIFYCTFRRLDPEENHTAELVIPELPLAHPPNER

Human PD-L1-ECD-His [3] = biological target: T1, Human PD-L1-ECD-His; experiment: Octet Red96 BLI, PDL1-ECD-His loaded on anti-Penta-HIS (HIS1K) biosensor, PD1-Fc protein as analyte, 1:1 model, pH6.0; pH 6
Human PD-L1-ECD-His [4] = biological target: T1, Human PD-L1-ECD-His; experiment: Octet Red96 BLI, PDL1-ECD-His loaded on anti-Penta-HIS (HIS1K) biosensor, PD1-Fc protein as analyte, 1:1 model, pH6.0; column head kdis(1/s); pH 6
Human PD-L1-ECD-His [5] = biological target: T1, Human PD-L1-ECD-His; experiment: Octet Red96 BLI, pH7.4; fold of affinity against PD1-Fc-wt1
Human PD-L1-ECD-His [6] = biological target: T1, Human PD-L1-ECD-His; experiment: Octet Red96 BLI, PDL1-ECD-His loaded on anti-Penta-HIS (HIS1K) biosensor, PD1-Fc protein as analyte, 1:1 model, pH7.4; column head kdis(1/s); pH 7.4
[7] = biological target: T2, PD-L1 on PD-L1 transfected CHO-S cells (human, UniProt Q9NZQ7); experiment: flow cytometry on PDL1 transfected CHO-S cells, goat anti-human Fc PE detection, pH6.0
T2 construct: also called PD-L1 tf CHO-S cells

Row | Fold (Human PD-L1-ECD-His [1]) | Kd (Human PD-L1-ECD-His [2]) [nM] | kon (Human PD-L1-ECD-His [2]) [M⁻¹ s⁻¹] | Kd (Human PD-L1-ECD-His [3]) [nM] | kon (Human PD-L1-ECD-His [3]) [M⁻¹ s⁻¹] | koff (Human PD-L1-ECD-His [4]) [s⁻¹] | Fold (Human PD-L1-ECD-His [5]) | koff (Human PD-L1-ECD-His [6]) [s⁻¹] | EC50 (read off the curve) [7] [µg/mL] | Binder
1 | 2.41 | 5.08 | 1.06e+06 | 7.42 | 808000 | 0.006 | 1.97 | 0.0054 |  | PD1-Fc-mt11 (Fc fusion) SHGHGHHGGGGPTFSPALLVVTEGDNATFTCSFSNTSESFVLNWYRMSPSNQTDKLAAFPEDRSQPGQDCRFRVTQLPNGRDFHMSVVRARRNDSGTYLCGAISLAPKAQIKESLRAELRVTERRAEVPTAHPSPSPRPAGQFQTLV[human IgG4 Fc with S228P (EU numbers) not shown]
2 | 2.93 | 5.55 | 1.18e+06 | 6.1 | 1.1e+06 | 0.00674 | 1.8 | 0.00658 |  | PD1-Fc-mt13 (Fc fusion) SHGHHGHGGGGPTFSPALLVVTEGDNATFTCSFSNTSESFVLNWYRMSPHNQTDKLAAFPEDRSQPGQDCRFRVTQLPNGRDFHMSVVRARRNDSGTYLCGAISLAPKAQIKESLRAELRVTERRAEVPTAHPSPSPRPAGQFQTLV[human IgG4 Fc with S228P (EU numbers) not shown]

The remaining lines, values behind:

Row | Binder | Fold (Human PD-L1-ECD-His [1]) | Kd (Human PD-L1-ECD-His [2]) [nM] | kon (Human PD-L1-ECD-His [2]) [M⁻¹ s⁻¹] | Kd (Human PD-L1-ECD-His [3]) [nM] | kon (Human PD-L1-ECD-His [3]) [M⁻¹ s⁻¹] | koff (Human PD-L1-ECD-His [4]) [s⁻¹] | Fold (Human PD-L1-ECD-His [5]) | koff (Human PD-L1-ECD-His [6]) [s⁻¹] | EC50 (read off the curve) [7] [µg/mL]
3 | PD1-Fc-mt6 (Fc fusion) SHGHGGGPTFSPALLVVTEGDNATFTCSFSNTSESFVLNWYRMSPHNQTDKLAAFPEDRSQPGQDCRFRVTQLPNGRDFHMSVVRARRNDSGTYLCGAISLAPKAQIKESLRAELRVTERRAEVPTAHPSPSPRPAGQFQTLV[human IgG4 Fc with S228P (EU numbers) not shown] | 2.66 | 6.1 | 1.03e+06 | 6.74 | 806000 | 0.00544 | 1.64 | 0.0063 | ~2
4 | PD1-Fc-mt9 (Fc fusion) SHHGHGHGGGGPTFSPALLVVTEGDNATFTCSFSNTSESFVLNWYRMSPSNQTDKLAAFPEDRSQPGQDCRFRVTQLPNGRDFHMSVVRARRNDSGTYLCGAISLAPKAQIKESLRAELRVTERRAEVPTAHPSPSPRPAGQFQTLV[human IgG4 Fc with S228P (EU numbers) not shown] | 2.56 | 5.92 | 846000 | 6.98 | 706000 | 0.00493 | 1.69 | 0.00501 | 
5 | PD1-Fc-mt12 (Fc fusion) SHHGHGHGGGGPTFSPALLVVTEGDNATFTCSFSNTSESFVLNWYRMSPHNQTDKLAAFPEDRSQPGQDCRFRVTQLPNGRDFHMSVVRARRNDSGTYLCGAISLAPKAQIKESLRAELRVTERRAEVPTAHPSPSPRPAGQFQTLV[human IgG4 Fc with S228P (EU numbers) not shown] | 2.41 | 6.89 | 1.02e+06 | 7.42 | 943000 | 0.00699 | 1.45 | 0.00703 | 
6 | PD1-Fc-mt14 (Fc fusion) SHGHGHHGGGGPTFSPALLVVTEGDNATFTCSFSNTSESFVLNWYRMSPHNQTDKLAAFPEDRSQPGQDCRFRVTQLPNGRDFHMSVVRARRNDSGTYLCGAISLAPKAQIKESLRAELRVTERRAEVPTAHPSPSPRPAGQFQTLV[human IgG4 Fc with S228P (EU numbers) not shown] | 2.09 | 7.44 | 902000 | 8.56 | 881000 | 0.00754 | 1.34 | 0.00671 | 
